# Test results from paper PMC4336329 (PLoS ONE, 2015).
# Hit rate of the full screen: of about 310,000 compounds, about 2,200 (0.71%) showed an effect of 50% or more. Effects have a minus sign here. The list shows a part of the results.
# Target: human ether-à-go-go-related gene (hERG) potassium channel (human, UniProt Q12809)
# Assay: primary screen, population patch clamp on CHO cells stably expressing hERG
# Chain of human ether-à-go-go-related gene (hERG) potassium channel (Q12809 whole entry, looked up): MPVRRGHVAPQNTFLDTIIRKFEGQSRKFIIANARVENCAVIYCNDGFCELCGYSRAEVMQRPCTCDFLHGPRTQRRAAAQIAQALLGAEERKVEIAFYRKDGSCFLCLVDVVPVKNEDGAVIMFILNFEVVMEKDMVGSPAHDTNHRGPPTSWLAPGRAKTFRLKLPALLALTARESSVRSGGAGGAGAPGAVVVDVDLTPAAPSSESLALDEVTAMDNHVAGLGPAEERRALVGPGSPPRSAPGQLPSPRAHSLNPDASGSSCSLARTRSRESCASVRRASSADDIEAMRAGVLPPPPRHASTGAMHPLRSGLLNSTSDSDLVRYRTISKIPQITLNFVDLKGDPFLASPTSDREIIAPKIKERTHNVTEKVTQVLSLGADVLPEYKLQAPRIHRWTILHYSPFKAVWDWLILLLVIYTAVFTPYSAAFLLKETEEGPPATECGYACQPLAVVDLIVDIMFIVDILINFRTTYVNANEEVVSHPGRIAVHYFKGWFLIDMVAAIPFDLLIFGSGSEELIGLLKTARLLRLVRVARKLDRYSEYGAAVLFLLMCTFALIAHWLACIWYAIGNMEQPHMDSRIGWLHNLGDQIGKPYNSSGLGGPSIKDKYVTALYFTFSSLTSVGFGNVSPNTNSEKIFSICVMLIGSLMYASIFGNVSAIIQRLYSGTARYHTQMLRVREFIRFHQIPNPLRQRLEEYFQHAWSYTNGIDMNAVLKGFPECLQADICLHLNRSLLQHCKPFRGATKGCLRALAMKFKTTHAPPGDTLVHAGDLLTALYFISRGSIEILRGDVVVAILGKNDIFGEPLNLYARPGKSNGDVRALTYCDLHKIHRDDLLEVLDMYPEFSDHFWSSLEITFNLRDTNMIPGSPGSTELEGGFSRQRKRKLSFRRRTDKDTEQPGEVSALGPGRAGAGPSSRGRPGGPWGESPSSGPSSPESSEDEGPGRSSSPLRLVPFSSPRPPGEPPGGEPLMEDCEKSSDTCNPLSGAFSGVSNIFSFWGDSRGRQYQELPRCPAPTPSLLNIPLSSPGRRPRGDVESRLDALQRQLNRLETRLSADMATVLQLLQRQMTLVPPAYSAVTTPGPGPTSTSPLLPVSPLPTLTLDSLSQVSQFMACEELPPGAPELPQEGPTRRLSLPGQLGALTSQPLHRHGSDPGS
row,SMILES,"hERG current change (%, negative = inhibition) at 1uM"
1,Cc1cc(N2CCC(C)CC2)nc2cccc(O)c12,4.11%
2,CCCCC(=O)NC(=S)Nc1cccc(NC(=O)c2ccccc2)c1,11.3%
3,O=C(N/N=C/c1ccoc1)c1cccc([N+](=O)[O-])c1,14%
4,COc1ccccc1NS(=O)(=O)c1cccc(NC(=O)Cc2cccs2)c1,7.33%
5,COc1ccc(CCNC(=O)COC(=O)C2CCCCC2)cc1,11.6%
6,O=C(Nc1nccs1)c1ccc(-c2ccc([N+](=O)[O-])cc2)o1,16%
7,COc1ccc(C)cc1NC(=O)C1CC(=O)OC12CCCCC2 (stereo not shown),11.3%
8,Cc1ccc2c(c1)nnn2C1CCN(CC(=O)NCc2ccccc2F)CC1,-20.4%
9,CC(C)c1ccccc1NC(=S)NCc1nc2ccccc2[nH]1,14.3%
10,COc1ccc(NC(=O)C/C(C)=N/NC(=O)c2ccncc2)c([N+](=O)[O-])c1,-4.09%
11,COCCNC(=S)N(CCc1c(C)[nH]c2ccc(F)cc12)Cc1ccc(C)cc1,13.7%
12,CCCC[C@@H]1CNC(=S)N1CCC12CC3CC(CC(C3)C1)C2,19.2%
13,COc1cc(/C=N/NC(=O)c2cc(-c3ccccc3)sc2N)cc(OC)c1OC,5.12%
14,COc1ccc(-n2cccc2/C=C2\C(=N)N3N=C(C(C)C)SC3=NC2=O)cc1,11.5%
15,O=c1[nH]c(=O)n(-c2ccccc2)c2c1C(C(F)(F)F)(C(F)(F)F)N=C(C1CCCCC1)N2,8.95%
16,O=C(Cc1nnc(NC(=O)c2ccccc2)s1)N/N=C\c1ccc(O)c(O)c1,18.2%
17,O=C(CNS(=O)(=O)c1ccc2ccccc2c1)NCCc1ccccn1,12.7%
18,O=C(O)CCNC(=S)Nc1cccc(F)c1,15.5%
19,O=C(CCCN1C(=O)/C(=C/c2ccc(F)cc2)SC1=S)NCCCn1ccnc1,-20.3%
20,O=C1CC(N(O)c2ccccc2)C(=O)N1c1cc(Cl)cc(Cl)c1 (stereo not shown),13%
21,CCOC(=O)c1[nH]c2cc(OC)c(OC)cc2c1NC(=O)CCN1CCSCC1,6.99%
22,CN(C)c1ccc(CNc2ncnc3sccc23)cc1,2.59%
23,CCCCn1c(-c2cccnc2)n[nH]c1=S,12.8%
24,CSc1nc(NCc2ccccc2)c2c3c(sc2n1)CN(C)CC3,-64.2%
25,CCc1ccc(NC(=O)Nc2cccs2)cc1,21.2%
